From PubChem BioAssay AID485364 (National Center for Advancing Translational Sciences (NCATS), 2010)
Out of some 360,000 compounds screened, about 11,000 (3.1%) were called active. Inconclusive means that the source gave no clear call. Such entries were picked first, then a sample of the others. Calls come from the whole dose curve; as a rule, active = well fitted inhibition curve with a large enough effect; inconclusive = small, poorly fitted or top-dose-only effect; inactive = no such curve, though single readings can be large or run the other way. Potencies of inconclusive entries are left out as doubtful fits. Some structures have more than one record in an assay (separate samples or runs), and their calls can disagree.

Molecular target: Schistosoma mansoni thioredoxin glutathione reductase (TGR) (UniProt Q962Y6)
Test: qHTS Assay for the Inhibitors of Schistosoma Mansoni Peroxiredoxins; note: nearly all actives have a fitted effect of over 60% in size
Conditions: purified TGR, DTNB reduction, TNB absorbance 405 nm; activity change, negative = inhibition: at 114 µM (top of the series) unless noted
Summary of the method: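 TGR 20 nM + NADPH 100 uM (dispensed conc.), cpd preinc 15 min RT; start with NADPH (500 uM addition) then DTNB (15 mM addition). Kinetic TNB absorbance, 405 nm filter. Four-parameter Hill fit across titration.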
% is set by controls: 0 for no effect and ±100 for the full control effect; potency is the fitted concentration of half-maximal effect; tags give direction and shape of the fitted curve.

SMILES | Potency | activity change, negative = inhibition
CN1c2ccc(C=O)c3c(C=O)ccc(c23)N(C)C1(C)C | active: 35.5 µM | 
Cc1ccc(-n2nc3c(=O)n(CCCC(=O)NCC(C)c4ccccc4)nc(C)c3c2C)cc1 (stereo not drawn) |  | inactive: 10.6%
O=C(c1ccc2c(c1)C(=O)N(Cc1ccco1)C2=O)N1CCOCC1 | inconclusive [inhibitor, partial curve] | 
COc1ccc(N2CCN(Cc3cc(=O)oc4c3ccc3ccccc34)CC2)cc1 | inconclusive [inhibitor, partial curve] | 
COc1ccc2nc(-c3ccco3)c(-c3ccco3)nc2c1 | active: 3.55 µM | 
CCOC(=O)C1CCCN(C2CC(=O)N(c3ccccc3)C2=O)C1 (stereo not drawn) | inconclusive [inhibitor, single point] | 
O=S(=O)(c1ccc(Br)s1)N1CCN(c2ccc(F)cc2)CC1 | active: 25.1 µM | 
O=C(OCn1ncc(Cl)c(Cl)c1=O)c1ccc(F)cc1 | active: 7.08 µM | 
CC(=O)N1CCN(CCN=Cc2c(O)n(-c3ccc(C)cc3)c(=S)[nH]c2=O)CC1 | inconclusive [inhibitor, full curve, poor fit] | 
N=c1n(CC(=O)c2cccs2)c2ccccc2n1Cc1ccccc1 |  | inactive: 6.07%
O=C(/C=C/c1ccccc1O)c1ccco1 | inconclusive [inhibitor, full curve] | 
Cc1ccc(C)c(/C(O)=C2\C(=O)C(=O)N(CCCn3ccnc3)C2c2ccncc2)c1 (stereo not drawn) | inconclusive [inhibitor, partial curve] | 
Cc1ccc(CNC(=O)Nc2ccccc2)n1C | active: 28.2 µM | 
O=C(c1ccco1)N1CCC(N2CCN(c3ccccc3)CC2)CC1 | inconclusive [inhibitor, partial curve] | 
CCCN1CCC(=O)N([C@H](CSc2ccccc2)CC(C)C)CC1 | inconclusive [inhibitor, full curve] | 
CC(=O)c1cccc(S(=O)(=O)N(C)C2CCN(C)CC2)c1 | inconclusive [inhibitor, full curve] | 
Cc1ccc(NC2=C(NC(=O)c3ccccc3)C(=O)c3ccccc3C2=O)cc1Cl | active: 1.58 µM | 
CC(=O)c1cccc2c(O)c(C3=Nc4ccccc4C3=O)[nH]c12 | inconclusive [inhibitor, partial curve] | 
CCc1ccc(/C=N/NC(=O)Cc2cccn2C)cc1 | inconclusive [inhibitor, partial curve] | 
NS(=O)(=O)c1cccc(NC(=O)CN2CCc3ccccc32)c1 | inconclusive [inhibitor, full curve, poor fit] | 
COc1cc(C(=O)OCC(=O)Nc2cc(C)on2)ccc1OCc1ccccc1Cl | inconclusive [inhibitor, full curve] | 
Cc1ccc(NC(=O)N/C=C/c2ccco2)cc1C | inconclusive [inhibitor, single point] | 
CCOC(=O)c1ccc(NC(=S)N2CCSC2c2ccc(Br)cc2)cc1 (stereo not drawn) |  | inactive: -3.1%

SMILES | Potency | activity change, negative = inhibition
C/C=C/c1ccc(OCCCCNCc2ccco2)c(OC)c1 | inconclusive [inhibitor, partial curve] | 
CC(=O)Nc1ccc(N/C(=N\S(=O)(=O)c2ccccc2)c2ccccc2)cc1 |  | inactive: 3.07%
Cc1noc(N)c1C(=O)Nc1ccccc1F |  | inactive: 0%
Cc1oc(-c2ccc(C(=O)NC(C)c3ccccc3)cc2)nc1CS(=O)(=O)c1ccccc1 (stereo not drawn) | inconclusive [inhibitor, partial curve] | 
Cc1ccc(OCc2nnc(SCCN3CCOCC3)n2C)cc1 | inconclusive [inhibitor, single point] | 
CCOC(=O)C1=C(O)/C(=C/c2ccc(-c3ccccc3C(=O)O)o2)SC1=Nc1ccc(C)cc1 | inconclusive [inhibitor, partial curve] | 
COc1cc(Cl)ccc1OCc1cc(C(=O)N2CCCCCC2)no1 | inconclusive [inhibitor, full curve, poor fit] | 
COCCNC(=O)CCCN1C(=O)CCn2nc(-c3cccn3C)cc21 | inconclusive [inhibitor, single point] | 
O=C(Nc1cccc(C(=O)O)c1)/C(=C\c1ccco1)NC(=O)c1ccccc1Cl | inconclusive [inhibitor, partial curve] | 
CCC(C)(C)n1nnnc1C(c1cc2ccc(C)cc2[nH]c1=O)N(Cc1cccnc1)Cc1ccco1 (stereo not drawn) | inconclusive [inhibitor, partial curve] | 
Cc1ccc(C)n1NC(=O)c1ccccc1Cl | inconclusive [inhibitor, partial curve, poor fit] | 
CC(=O)COc1ccc2cc(-c3ccccc3)c(=O)oc2c1 |  | inactive: 12.9%
Cc1ccc(C(=O)N[C@@H](C)CN2C3=NC[C@H](C(C)C)N3C[C@H]2Cc2ccc(O)cc2)cc1Br | active: 8.91 µM | 
COc1ccc(N(CC(=O)Nc2ccc3c(c2)OCCO3)S(C)(=O)=O)c(OC)c1 |  | inactive: -3.63%
CC1(c2ccccc2)NC(=O)N(CC(=O)NCC2CCCO2)C1=O (stereo not drawn) | inconclusive [inhibitor, single point] | 
CN(C)CCNc1ncnc2c1cnn2-c1ccc(Cl)cc1 |  | inactive: -28.6%
CC(C)(C)C1CCc2c(sc(NC(=O)c3ccco3)c2C(N)=O)C1 (stereo not drawn) | inconclusive [inhibitor, full curve, poor fit] | 
COc1cc(C2NC(=O)NC(O)(C(F)(F)F)C2C(=O)c2cccs2)ccc1O (stereo not drawn) | inconclusive [inhibitor, partial curve] | 
COc1ccc(S(=O)(=O)N2CCOCC2)cc1NC(=O)CN1C(=O)NC2(CCCC2)C1=O |  | inactive: -7.93%
CN1C(=O)c2c(sc3c2CCCC3)NC1c1ccccc1O (stereo not drawn) | inconclusive [inhibitor, partial curve] | 
O=C1NC(=O)C2(Cc3ccccc3N3CCCC32)C(=O)N1c1ccccc1 (stereo not drawn) | inconclusive [inhibitor, partial curve] | 
COc1cccc(-c2nc(CS(=O)(=O)CC(=O)NCCc3ccc(OC)cc3OC)c(C)o2)c1 | active: 25.1 µM | 
O=C(Nc1ccc(S(=O)(=O)N2CCOCC2)cc1)C1CCN(S(=O)(=O)c2ccccc2)CC1 |  | inactive: 5.39%

SMILES | Potency | activity change, negative = inhibition
Cc1cccc(NC(=O)CSc2nnc(-c3ccco3)c(-c3ccco3)n2)c1 | active: 3.55 µM | 
COC(=O)CC1COc2ccccc2N1S(=O)(=O)c1ccc(OC)cc1 (stereo not drawn) | inconclusive [inhibitor, partial curve] | 
Cc1cccn2c(=O)c3cc(C#N)c(=NC(=O)c4ccco4)n(Cc4ccco4)c3nc12 | inconclusive [inhibitor, partial curve] | 
CN(c1ccccc1)S(=O)(=O)c1cccc(NS(=O)(=O)c2ccc(/C=C/C(=O)O)cc2)c1 | inconclusive [inhibitor, partial curve] | 
C=CCc1cc(OC)ccc1OCCCCn1cncn1 | inconclusive [inhibitor, full curve, poor fit] | 
O=C(Oc1ccc(=O)n(-c2ccccc2)n1)c1ccccc1 | inconclusive [inhibitor, partial curve] | 
Cc1c(NC(=S)NNC(=O)CCC(=O)O)c(=O)n(-c2ccccc2)n1C | inconclusive [inhibitor, partial curve] | 
O=C(C1CCN(C2CC(=O)N(c3ccc(F)cc3)C2=O)CC1)N1CCOCC1 (stereo not drawn) | inconclusive [inhibitor, single point] | 
CCOCCCNC(=O)c1ccc2c(c1)ncn2-c1cccc(C)c1 | inconclusive [inhibitor, full curve, poor fit] | 
O=C(CCN1C(=O)C2CC=C(Cl)CC2C1=O)NCc1ccco1 (stereo not drawn) | inconclusive [inhibitor, full curve] | 
C=C(C)C(=O)Oc1ccc(N2C(=O)[C@@H]3C4C=CC(C4)[C@@H]3C2=O)cc1 | inconclusive [inhibitor, partial curve] | 
Cc1ccc(S(=O)(=O)N(CC(=O)N/N=C/c2ccco2)c2cc(Cl)cc(Cl)c2)cc1 |  | inactive: 0.119%
CCOc1ccc(CN2CCN(Cc3ccc4cc(F)ccc4n3)CC2CCO)cc1 (stereo not drawn) | inconclusive [inhibitor, single point] | 
CCOC(=O)NC(C(F)(F)F)(C(F)(F)F)P(=O)(c1ccccc1)c1ccccc1 | inconclusive [inhibitor, partial curve] | 
COCCCNC(=S)N1CCN(C(=O)C(=O)Nc2ccc(C(=O)OC)cc2)CC1 |  | inactive: 4.12%
CC(=O)CCS(=O)(=O)c1ccc(NC(C)=O)cc1 | inconclusive [inhibitor, partial curve] | 
O=S(Cc1ccc(Br)cc1)Cc1nnc(SCc2c(Cl)cccc2Cl)n1-c1ccccc1 (stereo not drawn) |  | inactive: -0.278%
CCCCOC(=O)/C=C\C(=O)OCCCC | inconclusive [inhibitor, partial curve] | 
CCOC(=O)N1CCN(CC(=O)c2c(C)[nH]c3ccccc23)CC1 | active: 35.5 µM | 
O=C(Nc1cccc(-c2nc3ncccc3o2)c1)c1sc2cc(Cl)ccc2c1Cl | inconclusive [inhibitor, single point] | 
CCOc1ccc(NC(=S)NC(=O)Cc2ccccc2)cc1 | inconclusive [inhibitor, full curve] | 
COc1cccc(OCc2cc(C(=O)N3CCN(C4CCCC4)CC3)no2)c1 | inconclusive [inhibitor, single point] | 
